Data from publication PMC5540273 (PLoS ONE, 2017).
What follows is the remainder of the data, with few or none of the strong results.

What follows are compounds tested on PRKX. Conditions: concentration: 1 μM,replicates: in singlicate; n = 1.
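Also: KINOMEscan kinase panel screen.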

Structure (SMILES) | %Inh [%]
O=C1NC(=O)C(c2ccc(Cl)cc2)=C1Nc1ccc(O)c(Cl)c1 [SB-405367] | 10
O=C1NC(=O)C(c2ccc(Cl)cc2)=C1Nc1ccccc1 [SB-317661] | 0
COc1cccc(C2=C(Nc3ccc(SC)cc3)C(=O)NC2=O)c1 [SB-331032] | 0
Cc1ccc(C)c(Oc2nccc(-c3c(-c4ccc(F)cc4)ncn3C3CCNCC3)n2)c1.O=C(O)C(F)(F)F.O=C(O)C(F)(F)F.O=C(O)C(F)(F)F [SB-284852] | 0
O=C1NC(=O)C(c2ccccc2Cl)=C1Nc1cccc(C(=O)O)c1 [SB-390526] | 14
O=C1NC(=O)C(c2ccccc2)=C1Nc1cc(Cl)c(O)c(Cl)c1 [SB-390530] | 0
CSc1ccc(NC2=C(c3cccc(Cl)c3)C(=O)NC2=O)cc1 [SB-341528] | 0
O=C1NC(=O)c2c1c(-c1ccccc1)cc1[nH]c3ccc(O)cc3c21 | 21
Cc1cc(C)cc(Oc2nccc(-c3c(-c4ccc(F)cc4)ncn3C3CCNCC3)n2)c1.O=C(O)C(F)(F)F.O=C(O)C(F)(F)F.O=C(O)C(F)(F)F [SB-284851] | 0
COc1ccc(C2=C(Nc3cccc(Cl)c3)C(=O)NC2=O)cc1 [SB-326892] | 0
O=C(O)c1ccc(-c2nc(-c3ccc(F)cc3)c(-c3ccncc3)[nH]2)cc1 [SB-202620] | 0
O=C1NC(=O)C(c2ccccc2)=C1Nc1ccc(Cl)c(C(=O)O)c1 [SB-390532] | 0
O=C1NC(=O)C(c2ccc(Cl)cc2)=C1Nc1cccc(C(=O)O)c1 [SB-360737] | 6
